According to article PMC4336329 (PLoS ONE, 2015):
Among all 310,000 compounds or so, about 2,200 (0.71%) showed an effect of 50% or more. Effects have a minus sign here. This is one part of the list.

Target: human ether-à-go-go-related gene (hERG) potassium channel (human, UniProt Q12809)
Test: primary screen, population patch clamp on CHO cells stably expressing hERG

Sequence of human ether-à-go-go-related gene (hERG) potassium channel (Q12809 whole entry, looked up): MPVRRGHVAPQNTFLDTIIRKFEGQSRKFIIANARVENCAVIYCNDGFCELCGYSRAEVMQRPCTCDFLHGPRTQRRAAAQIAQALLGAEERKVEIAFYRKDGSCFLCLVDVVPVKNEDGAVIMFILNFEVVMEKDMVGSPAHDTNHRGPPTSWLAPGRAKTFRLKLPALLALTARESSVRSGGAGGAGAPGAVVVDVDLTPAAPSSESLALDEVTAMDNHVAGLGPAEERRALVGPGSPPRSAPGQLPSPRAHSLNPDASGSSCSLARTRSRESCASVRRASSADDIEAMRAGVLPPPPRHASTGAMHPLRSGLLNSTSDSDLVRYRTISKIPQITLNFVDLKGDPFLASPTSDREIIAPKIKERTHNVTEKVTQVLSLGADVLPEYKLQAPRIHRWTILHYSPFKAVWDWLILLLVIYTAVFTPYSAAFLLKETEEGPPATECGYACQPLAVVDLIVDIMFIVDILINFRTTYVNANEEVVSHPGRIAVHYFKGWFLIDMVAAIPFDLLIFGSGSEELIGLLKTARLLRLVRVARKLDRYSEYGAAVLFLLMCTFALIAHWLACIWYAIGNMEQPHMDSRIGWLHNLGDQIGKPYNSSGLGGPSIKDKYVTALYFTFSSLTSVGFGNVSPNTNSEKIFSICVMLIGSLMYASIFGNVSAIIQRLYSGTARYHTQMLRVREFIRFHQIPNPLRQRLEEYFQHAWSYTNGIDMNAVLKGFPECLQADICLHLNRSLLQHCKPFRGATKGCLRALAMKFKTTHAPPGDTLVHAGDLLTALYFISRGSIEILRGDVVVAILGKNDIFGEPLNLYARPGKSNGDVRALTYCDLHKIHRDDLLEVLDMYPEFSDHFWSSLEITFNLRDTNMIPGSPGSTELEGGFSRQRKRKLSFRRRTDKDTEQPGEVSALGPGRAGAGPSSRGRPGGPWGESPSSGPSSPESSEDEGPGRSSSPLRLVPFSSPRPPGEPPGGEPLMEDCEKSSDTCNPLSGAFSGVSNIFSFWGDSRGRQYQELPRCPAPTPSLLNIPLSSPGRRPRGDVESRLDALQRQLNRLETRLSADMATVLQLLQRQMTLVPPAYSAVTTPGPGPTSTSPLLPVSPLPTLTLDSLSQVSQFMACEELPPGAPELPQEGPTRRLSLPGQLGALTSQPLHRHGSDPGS

Row | SMILES | hERG current change (%, negative = inhibition) at 1uM
1 | COC(=O)c1sccc1NC(=O)CC1C(=O)NCCN1C(=O)Nc1cc(Cl)ccc1OC (stereo not shown) | 5.03%
2 | O=C(C[n+]1cccc2ccccc21)c1ccccc1.[Br-] | 8.9%
3 | Clc1ccc(N2CCN(Cc3ccccc3Cl)CC2)cc1 | 8.18%
4 | CCCNS(=O)(=O)c1ccc2c(c1)n(C)c(=O)n2C | 12.9%
5 | CCOC(=O)C1=C(O)C(Nc2nccs2)(C(F)(F)F)N=C1C (stereo not shown) | 7.06%
6 | c1ccc(CSc2nnc(-c3c[nH]c4ccccc34)o2)cc1 | 12.7%
7 | CCC(=O)Nc1ccc2ccccc2c1 | 13.7%
8 | Cc1c(C)c2cc3c(C)coc3cc2oc1=O | 12.9%
9 | Cc1ccc(-c2ccc(S(=O)(=O)NCc3ccco3)cc2)cc1 | 15.1%
10 | O=C(Nc1ccc2[nH]c(=O)[nH]c2c1)c1ccc([N+](=O)[O-])o1 | 10.6%
11 | COc1ccc(C2CC(c3ccc(Br)cc3)=NN2C(=S)Nc2ccccc2)cc1 (stereo not shown) | 9.06%
12 | CCOC(=O)C1=C(C)C/C(=N\NC(=O)c2ccccc2O)CC1 | 12.1%
13 | Cn1nc(C(=O)OCc2ccc(F)cc2)c2ccccc2c1=O | 12%
14 | O=C(c1cc(-c2cccnc2)nc2ccccc12)N1CCN(S(=O)(=O)c2cccs2)CC1 | -11%
15 | O=[N+]([O-])c1cccc(-c2nnc3cccc(Cl)n23)c1 | 0.728%
16 | COc1cc(/C=N\n2cnnc2)ccc1OCC(=O)Nc1ccc(C)cc1 | 11.2%
17 | CCc1ccccc1NC(=O)c1ccc2c(c1)CCN2S(C)(=O)=O | 14.6%
18 | CCOc1ccc(/C=N/NC(=O)c2csc(C)c2C)c(OCC)c1 | 9.93%
19 | CC1Sc2ccc(S(=O)(=O)CCC(=O)N(C)Cc3ccccc3)cc2NC1=O (stereo not shown) | 11.3%
20 | COc1ccc(OC)c(NC(=O)N2CCc3ccccc3C2)c1 | 2.82%

Row | SMILES | hERG current change (%, negative = inhibition) at 1uM
21 | O=[N+]([O-])c1ccc(N=Nc2c(O)[nH]c3ccc(F)cc23)cc1 | 5.64%
22 | Cc1c(CCC(=O)N[C@@H](CCCNC(N)=O)C(=O)O)c(=O)oc2cc3oc4c(c3cc12)CCCC4 | 9.91%
23 | CN(C)/C=C(/C#N)C(=O)c1cccc(Oc2ccc(C(C)(C)C)cc2)c1 | 2.12%
24 | COc1ccc(S(=O)(=O)N(C)C)cc1NC(=O)COC(=O)c1nc2nccc(C)n2n1 | 6.92%
25 | O=C(COc1ccc2c(c1)OCO2)Nc1ccc(Cl)cn1 | -0.549%
26 | CCc1cc(-c2ccc3c(c2)COc2c4ccccc4nn2-3)on1 | 6.44%
27 | COc1ccc(/C=C2\NC(=S)N(CC3CCCO3)C2=O)c(OC)c1 (stereo not shown) | 7.77%
28 | NC(=S)NN=C1c2ccccc2-c2ccccc21 | 11.1%
29 | C[n+]1c2n(c3ccccc31)N=C(c1ccc(Br)cc1)CS2.[Br-] | -53.1%
30 | O=C(NCC1CCOCC1)c1ccc(OC2CCN(Cc3ccccn3)CC2)cc1 | 13%
31 | COc1cccc(NC(=O)CCSc2ccc(C)cc2)c1 | 13.3%
32 | COc1cccc(NC(=O)C2CCCN2C(=O)OCc2ccccc2)c1 (stereo not shown) | 1.69%
33 | CCOc1cc(/C=C/c2ccc3cccc([N+](=O)[O-])c3n2)ccc1O | 13.2%
34 | CN(C)CCCN1C(=O)c2cc3ccccc3cc2C1=O | 6.68%
35 | N#C/C(=N\Nc1cccc2ccccc12)c1nnc2n1CCCCC2 | 2.59%
36 | Cc1cccnc1NC(=O)Nc1cccs1 | 11.5%
37 | NNC(=O)c1cc2c(s1)CCCCCC2 | 19.2%
38 | Clc1ccc(CN2CCSCC2)c(Cl)c1 | 12%
39 | CC(NCc1ccccc1O)c1ccccc1 (stereo not shown) | 20.2%
40 | COc1ccc2oc(=O)c(C(=O)NCC3CCCO3)cc2c1 (stereo not shown) | 9.45%

Row | SMILES | hERG current change (%, negative = inhibition) at 1uM
41 | Cc1occc1-c1nnc(SCC(=O)Nc2ccccc2N2CCCCC2)n1C | -7.41%
42 | CCC(C)NC(=O)C1CCN(S(=O)(=O)c2ccc3nc4c(c(C(=O)O)c3c2)CCCCC4)CC1 (stereo not shown) | 6.54%
43 | CC(=O)Oc1ccc(C(=O)Nc2cccc(C(=O)Nc3ccccc3C(=O)O)c2)cc1 | 13.7%
44 | COC(=O)c1ccc(NC(=O)CCCCCn2nnc3ccccc3c2=O)cc1 | 5%
45 | COc1ccc(CN(Cc2ccncc2)C(=O)CCC(=O)O)cc1 | -3.83%
46 | COc1ccc(C(=O)/C=C2\NCCc3cc(OC)c(OC)cc32)cc1OC | 11.5%
47 | COCCCNC(=O)CN(Cc1ccc(Cl)cc1)S(C)(=O)=O | 13.8%
48 | CCOc1ccc(C(CC(=O)O)NC(=O)CCCOc2ccc(Cl)cc2C)cc1 (stereo not shown) | 1.25%
49 | O=C(Cc1ccc(O)cc1)N/N=C/c1cccnc1 | 10.2%
50 | CCN(CC)S(=O)(=O)c1cc([N+](=O)[O-])ccc1N=Nc1c(O)n(C)c2ccccc12 | 5.63%
51 | COCC(=O)N(CCc1ccccc1)Cc1cc2cc(C)ccc2nc1Cl | 0.27%
52 | CCc1nnc(SCCSc2nnc(CC)n2N)n1N | 8.58%
53 | CCN(CC(=O)Nc1cccc(C(C)=O)c1)S(=O)(=O)c1ccc(C)cc1 | 7.92%
54 | COCCN1CC(C(=O)NCc2ccccc2-n2ccnc2C)CCC1=O (stereo not shown) | 9.1%
55 | Cc1ccccc1Nc1nnc(-c2ccc(C(=O)NCCO)cc2)c2ccccc12 | 1.93%
56 | COC(=O)c1ccc(N2CCN(C)CC2)c(NC(=O)c2cc3ccccc3o2)c1 | 0.985%
57 | C=CCNC(=O)c1cc(Cl)cc(Cl)c1 | 11.6%
58 | COc1cccc(NCc2cc(=O)oc3cc(C)c(O)cc23)c1 | 16.1%
